# Hit rate of the full screen: of about 52,000 compounds, about 1,700 (3.3%) were called active. Cut-off read from the data, not from the text of the source: active = survival mostly below about 52% (no sharp cut-off); inactive = mostly above about 56%. The list shows a part of the results.
# Tested on: Wild type
# Experiment: growth inhibition of S. aureus wild type versus tarO mutant, primary screen, teichoic acid synthesis inhibitors, RN4220, OD600 (AID 463173)
# Details: S. aureus RN4220 wild type/DeltatarO growth, OD600, 18 h, active compounds read low, screened at 18.75 µg/mL (by protocol)
row,SMILES,survival
1,Cc1ccccc1OCC(=O)N(Cc1ccc(C(C)C)cc1)C1CCS(=O)(=O)C1 (configuration not stated),inactive: 72%
2,Cc1ccc(S(=O)(=O)c2nc(-c3ccccc3)oc2SCC(=O)NC2CCCCC2)cc1,inactive: 161%
3,O=C(Nc1ccc(F)c(Cl)c1)C1CCCN1S(=O)(=O)c1ccc(F)cc1 (configuration not stated),inactive: 94%
4,COc1cccc(C2Nc3ccccc3-c3nnc(SCc4ccccc4)nc3O2)c1OC (configuration not stated),inactive: 127%
5,COc1ccc(NC(=O)C(CC(C)C)NS(=O)(=O)c2ccc3c(c2)oc(=O)n3C)cc1Cl (configuration not stated),inactive: 136%
6,CCOc1ccc(NC(=O)Cn2c(=O)n(Cc3nc(-c4ccccc4)no3)c(=O)c3ccccc32)cc1,inactive: 82%
7,CCOC(=O)C1=C(CS(=O)(=O)c2ccc(C)c(C)c2)NC(=O)NC1c1ccccc1OCC (configuration not stated),inactive: 88%
8,COc1ccc(N(CC(=O)N2CCN(c3cccc(OC)c3)CC2)S(=O)(=O)c2c(C)noc2C)cc1,inactive: 75%
9,O=C(Cn1c(=O)ccc2cc(S(=O)(=O)N3CCCC3)ccc21)NCc1ccc(F)cc1,inactive: 94%
10,COc1ccc(CCNC(=O)CSCc2nc(-c3ccc(OC)c(OC)c3)oc2C)cc1OC,inactive: 77%
11,COc1cc(OC)c(NC(=O)c2ccc3c(Cl)c4c(nc3c2)CCCC4)cc1Cl,inactive: 86%
12,Cc1nn(-c2ccccc2)c2sc(C(=O)N3CCOCC3)cc12,inactive: 120%
13,CC1CCCN(C(=O)Cn2c(=O)n(CC3CCC(C(=O)NC(C)C)CC3)c(=O)c3sccc32)C1 (configuration not stated),inactive: 128%
14,Cn1c(-n2cccc2)c(-c2c(-c3ccc(F)cc3)[nH]c3c2c(=O)[nH]c(=O)n3C)c(=O)[nH]c1=O,inactive: 83%
15,Nc1nc(SC#CC(F)(F)F)ns1,inactive: 38%
16,O=C1CN(c2ccccc2)C(=S)N1C(=O)c1ccccc1,inactive: 107%
17,COCCNc1ccc(-c2nc(-c3cccc(C)c3)no2)cc1[N+](=O)[O-],inactive: 86%
18,CN1C(=O)c2ccccc2Sc2ccc(NC(=O)COc3ccc(Cl)cc3)cc21,inactive: 65%
19,COc1ccc(-n2ncc3c2ncn2nc(-c4ccc(Cl)cc4Cl)nc32)cc1,inactive: 92%
20,COC(=O)c1ccc(OC2OCCOC2Oc2ccc(C(=O)OC)cc2)cc1 (configuration not stated),inactive: 112%
21,Cn1c(SCCC(=O)O)nc2ccccc21,inactive: 110%
22,CCNC(=S)N1CCN(C(=O)c2ccco2)CC1,inactive: 102%

row,SMILES,survival
1,COc1ccc(-c2nnc(SCc3nnc(-c4ccccc4)o3)o2)cc1OC,inactive: 106%
2,COc1cccc(OC)c1Cn1nnc2c(=O)[nH]c(C3CCN(C(=O)c4ccccc4)CC3)nc21,inactive: 76%
3,CSc1ccc(CCNC(=O)c2ccc3c(c2)nc2n3CCOC2)cc1,inactive: 55%
4,CCOC(=O)c1c(NC(=O)c2nc(SC)ncc2Cl)sc(C)c1C,inactive: 88%
5,Cc1cc(NC(=O)CN2C(=O)CSc3ccc(S(=O)(=O)N(C)C)cc32)ccc1Br,inactive: 92%
6,Cc1cc(C)nc(SCC(N)=O)n1,inactive: 101%
7,COc1ccc(Cl)cc1NC(=O)CSc1cn(CC(=O)N2CCCC2)c2ccccc12,inactive: 96%
8,COc1ccccc1CNC(=O)c1cc2c(=O)n(Cc3cccs3)ccc2nc1C,inactive: 77%
9,Cc1ccc(-n2c(SCC(=O)N3CCC(C)CC3)nc3c([nH]c4ccccc43)c2=O)cc1,active: -6%
10,COc1cccc(-c2ccnc3[nH]n(-c4ccccc4)c(=O)c23)c1,inactive: 81%
11,CC(C)c1nnc(NC(=O)c2nc(S(=O)(=O)Cc3ccccc3)ncc2Cl)s1,inactive: 55%
12,Cc1ccc(NC(=O)c2ccc(F)c(S(=O)(=O)N3CCc4ccccc4C3)c2)cc1F,inactive: 92%
13,COc1ccc2c(c1)c(=O)c(C(=O)c1ccc(Cl)cc1)cn2CC(=O)Nc1ccc2c(c1)OCO2,inactive: 103%
14,CCN(Cc1ccccc1)C(=O)CCS(=O)(=O)c1ccc2c(c1)oc(=O)n2C,inactive: 127%
15,O=C(Nc1ccccc1)C1CCN(C(=O)c2cccs2)CC1,inactive: 121%
16,Cn1c(=O)n(CCCc2ccccc2)c(=O)c2c1nc1n2CCN1c1ccccc1,inactive: 85%
17,CCOC(=O)c1scc(-c2ccc(C)cc2)c1S(=O)(=O)Nc1ccc(F)c(F)c1,inactive: 72%
18,CCOc1ccc(CCNC(=O)c2ccc3c(c2)N(Cc2cccc(Cl)c2)C(=O)c2ccccc2S3(=O)=O)cc1OCC,inactive: 148%
19,Cc1c(Cl)cccc1NC(=O)NCCOCCn1c(=O)oc2ccccc21,inactive: 84%
20,CCOC(=O)N1CCc2c(sc(NCc3sccc3C)c2C(=O)Nc2ccccc2OCC)C1,inactive: 74%
21,CCOC(=O)c1ccc(NC(=O)CN2C(=O)CC(c3ccc(C)c(C)c3)=Nc3ccccc32)cc1,inactive: 70%
22,Cc1cc(-c2nc3ccccc3s2)ccc1NC(=O)c1cc(Cl)ccc1Cl,inactive: 92%

row,SMILES,survival
1,N#CC1=C(N)C(C#N)(C#N)C(c2cccs2)C2CN(C(=O)OCc3ccccc3)CC=C12 (configuration not stated),inactive: 118%
2,COc1ccc2c(C)c(CCC(=O)NCc3ccc(OC)c(OC)c3)c(=O)oc2c1,inactive: 112%
3,COc1ccc2[nH]c(=O)c(C(c3nnnn3Cc3ccccc3)N3CCCC3)cc2c1 (configuration not stated),inactive: 111%
4,Cc1sc(NC(=O)COc2ccc(C(C)(C)C)cc2)c(C(=O)OC(C)C)c1C,active: 10%
5,CCOc1cc(C2c3c(oc4ccccc4c3=O)C(=O)N2Cc2ccccc2Cl)ccc1O (configuration not stated),inactive: 90%
6,CCc1ccc(N2C(=O)CS(=O)(=O)C23C(=O)N(Cc2ccccc2F)c2ccccc23)cc1 (configuration not stated),inactive: 92%
7,COc1ccc(C2CC(=O)c3c([nH]c(C(=O)OCCOc4ccccc4)c3C)C2)cc1OC (configuration not stated),inactive: 134%
8,CCn1cc(C(=O)N2CCN(c3ccccc3)CC2)c(=O)c2cc(S(=O)(=O)N3CCC(C)CC3)ccc21,inactive: 84%
9,CCOc1ccc(NC(=O)c2cn3c4c(ccc(Cl)c4c2=O)OC(C)C3)cc1 (configuration not stated),inactive: 82%
10,CCN1CCN(C(=O)c2cnn(-c3cccc(C)c3)c2C2CCN(C(=O)OC(C)(C)C)CC2)CC1,inactive: 80%
11,CNC(=O)Cc1nc2ccccc2[nH]1,inactive: 108%
12,COc1cccc(CNC(=O)c2cccn2-c2nnc(N3CCCC3)s2)c1,inactive: 88%
13,COc1cccc(NC(=O)C2CCN(S(=O)(=O)c3cc(-c4noc(C)n4)ccc3C)CC2)c1,inactive: 124%
14,O=C(N=Nc1c(O)n(CN2CCCC2)c2ccccc12)c1ccccc1,inactive: 110%
15,COc1cc(-c2noc(-c3cc(C)[nH]n3)n2)cc(OC)c1OC,inactive: 68%
16,Nc1nc2ccc(CCC(=O)O)cc2s1,inactive: 95%
17,COc1ccc(CNC(=O)C2CCN(S(=O)(=O)c3cn(C)cn3)CC2)cc1,inactive: 79%
18,COc1ccc(NC(=O)N(Cc2ccco2)C2CCN(C(C)=O)CC2)c(OC)c1,inactive: 85%
19,Cc1ccc(-c2noc(C3CC(=O)N(c4ccc5c(c4)OCCO5)C3)n2)cc1 (configuration not stated),inactive: 64%
20,COc1ccc(-n2c(=O)c3sc4ccccc4c3n(Cc3ccccc3)c2=O)cc1,inactive: 81%
21,CC(=O)c1cccc(NC(=O)Cn2c(C)c3cnn(-c4ccccc4)c(=O)c3c2C)c1,inactive: 115%
22,Cc1ccc2c(CNC3CCC(C)CC3)c(C(=O)O)n(Cc3cccc(F)c3)c2c1 (configuration not stated),inactive: 57%

row,SMILES,survival
1,CCN(CC)CCNC(=O)c1ccc2c(c1)N(Cc1ccccc1)C(=O)c1ccccc1S2=O (configuration not stated),inactive: 119%
2,Cc1cccc(C)c1NC(=O)CN(C)S(=O)(=O)c1ccc2c(c1)n(C)c(=O)c(=O)n2C,inactive: 83%
3,CCc1ccc(OCC(=O)NCC(c2ccc(OC)cc2)N2CCOCC2)cc1 (configuration not stated),inactive: 71%
4,CCSc1nc(=O)c2c(n1C)NC(=O)CC2c1ccc(O)cc1OC (configuration not stated),inactive: 95%
5,COc1ccc(C2CC(=O)N(CC(=O)Nc3ccc(C(F)(F)F)cc3)c3ccccc3S2)cc1 (configuration not stated),inactive: 96%
6,COc1ccc(C(=O)Nc2ccc3nc(SCC(=O)N4CCOCC4)sc3c2)cc1,inactive: 84%
7,COC(=O)c1ccc(OC)c(Cn2c(=O)n(-c3ccc(C)cc3)c(=O)c3c2cnn3C)c1,inactive: 76%
8,O=C1C2C3C=CC(C3)C2C(=O)N1CCN1CCN(S(=O)(=O)c2cccs2)CC1 (configuration not stated),inactive: 102%
9,COc1cc(NC(=O)c2cc3nc(-c4ccccc4)cc(-c4ccccc4)n3n2)c(OC)cc1Cl,inactive: 79%
10,COc1cc2c(cc1OC)C(c1ccc(F)cc1)N(c1ccc(F)cc1)C(=O)C2 (configuration not stated),inactive: 119%
11,CC1CCN(c2nc3ccc(C(=O)NCc4ccc(Cl)cc4)cc3s2)CC1,inactive: 134%
12,CCc1nn(CC(=O)NC2CC2)c(=O)c2cc3ccccc3n12,inactive: 121%
13,O=C(Cn1c(=O)nc(-c2ccccc2)c2cc(Cl)ccc21)NCCCc1ccccc1,inactive: 68%
14,Cn1cc(C(=O)NCc2ccccc2)c(=O)c2cc(S(=O)(=O)N3CCCCCC3)ccc21,inactive: 133%
15,COc1cccc(CNC(=O)c2c3c(nc4ccccc24)C(=O)N(C2CCCCC2)C3)c1,inactive: 64%
16,Cc1ccc(C)c(CSc2nc3ccncc3n2Cc2nc(-c3ccccc3Cl)oc2C)c1,inactive: 61%
17,Cn1c(N2CCN(S(=O)(=O)c3ccc(Cl)cc3)CC2)nc2ccccc21,inactive: 98%
18,Cc1ccccc1Oc1nc2c(c(=O)n(C)c(=O)n2C)n1Cc1ccc(Br)cc1,inactive: 125%
19,Cc1ccc(CN2C(=O)C(C)(C)Oc3ccc(C(=O)NC4CC4)cc32)cc1,inactive: 108%
20,O=C(Nc1ccc(OC(F)(F)F)cc1)NC1COc2ccccc2C1 (configuration not stated),active: -3%
21,C=CCC(C#Cc1ccccc1)N(C)C (configuration not stated),inactive: 107%

# From PubChem BioAssay AID463173 (ICCB-Longwood Screening Facility, Harvard Medical School, 2010)
